From PubChem BioAssay (NCI)
Where “and” joins values, the source holds several entries; their conditions need not be identical. Equal entries are not always repeated.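 Five concentrations, 48 hours, 96-well plates. GI50 is the concentration that inhibits growth by half. Definition used: TGI = concentration required for complete inhibition of growth.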

System: NCI-H322M lung
Assay: NCI anticancer screen, dose series, 48 h

Row | Structure (SMILES) | GI50 | TGI
1 | COc1cc(/C=C2/N=C(c3ccccc3)N(C3=NNC4(C(=O)N3)c3ccccc3-c3ccccc34)NC2=O)ccc1O | 29.6 µg/mL | 55.3 µg/mL
2 | NNC(=S)N1CCN(C(=S)NN)CC1 | – | > 100 µM
3 | [N-]=[N+]=Nc1ccc(CNc2cc(=O)[nH]c(=O)[nH]2)cc1 | – | > 100 µM
4 | COC1CC(OC(=O)c2ccccc2)C(OC(=O)c2ccccc2)C(C)O1 (stereo not drawn) | – | > 100 µM
5 | CC(=Nc1ccncc1)C(C)=Nc1ccncc1 | – | > 100 µM
6 | Fc1cccc(Cl)c1/C=N\N=C1c2ccccc2-c2ccccc21 | – | > 100 µM
7 | O=c1[nH]c2cc3[nH]c4ncccc4c(=O)c3cc2[nH]1 | – | > 10 µM
8 | C1=CC=C2NCCOCCNC3=CC=CC=CC3=NCCOCCN=C2C=C1 | – | > 100 µM
9 | CC(=O)Oc1ccc(C2COc3cc(OC(C)=O)c(OC(C)=O)cc3C2)cc1 (stereo not drawn) | – | 71.6 µM
10 | Cn1c(=O)c2c(ncn2CN2CCN(Cn3cnc4c3c(=O)n(C)c(=O)n4C)CC2)n(C)c1=O | – | > 100 µM
11 | CCN(CCNc1ccc(C)c2sc3ccccc3c(=O)c12)CC(C)(C)O | 15.7 µM | 41.9 µM
12 | Cc1ccc(S(=O)(=O)c2c(O)c3ccccc3n(C)c2=O)cc1 | – | > 100 µM
13 | O=C1C(Br)=C(c2ccccc2)S(=O)c2ccccc21 (stereo not drawn) | – | 30.7 µM
14 | O=c1[nH]c(N/N=C\C(O)C(O)C(O)CO)nc2ccccc12 (stereo not drawn) | – | > 100 µM
15 | CCOC(=O)C(CS)NC(=O)CCCCCCCC(=O)NC(CS)C(=O)OCC (stereo not drawn) | – | > 100 µM
16 | CN(C)CCNc1ncnc2nc(-c3ccc4ccccc4c3)[nH]c12 | – | > 100 µM
17 | c1nnc(NCNc2nncs2)s1 | – | > 100 µM
18 | O=C1/C(=C2\Sc3c(ccc(Cl)c3Cl)C2=O)Sc2c1ccc(Cl)c2Cl | – | > 100 µM
19 | O=C1CCCN1CC#CCN1CCCC1 | > 100 µM | > 100 µM
20 | Oc1ccccc1-c1nc2c3ccccc3c3ccccc3c2[nH]1 | 7.57 µM | 21.1 µM
21 | CSc1ccc(/C=C2\C=C(CC(=O)NCc3ccc(C(=O)c4ccccc4)cc3)c3cc(F)ccc32)cc1 | 1.72 µM | > 100 µM
22 | Cc1ccc(C(=O)/C(C#N)=C/Nc2c(C)n(C)n(-c3ccccc3)c2=O)cc1 | – | > 100 µM
23 | c1ccc2c(c1)nc1n2CCSC1 | – | > 100 µM
24 | CCN1CSC(=S)N(CC)C1 | – | > 100 µM
25 | O=c1ccc(=O)c2c(=O)c3ccccc3c(=O)c1=2 | – | > 100 µM
26 | CCc1ccc2c(c1)CC1(C2)Cc2cc3c(cc2C1)C(=O)CC3 (stereo not drawn) | – | 75.1 µM

Row | Structure (SMILES) | GI50 | TGI
27 | C=C1C(=O)OC2/C=C(\C=O)CC/C=C(\C)C(O)C[C@@H]12 (stereo partly drawn) | – | 29.6 µM
28 | Nc1cc(N2CCCC2)nc(=O)n1Cc1ccccc1 | – | > 100 µM
29 | Cc1cc(C)n(CN(Cn2nc(C)cc2C)C2CCCCC2)n1 | – | > 100 µM
30 | CC(=O)N1CCN(C23OC4(N5CCN(C(C)=O)CC5)C5C6CC(C7C6C4C72)C53)CC1 (stereo not drawn) | – | > 100 µM
31 | S=c1nc(-c2cccnc2)[nH][nH]1 | – | > 100 µM
32 | Cc1ccc(S(=O)(=O)N=Nc2c(O)[nH]c3c(Cl)cc(Cl)cc23)cc1 | – | > 100 µM
33 | COc1cc(C2SCC(=O)N2c2ccc(Oc3ccc(Cl)cc3)c(Cl)c2)cc(OC)c1OC (stereo not drawn) | – | 31.4 µM
34 | CC1CCN(CC(=O)N2c3ccccc3Sc3cc4ccccc4cc32)CC1 | – | > 100 µM
35 | CSC1=NS(=O)(=O)c2cc(C(=O)NN(C)C(=O)c3cc4c(cc3Cl)SC(SC)=NS4(=O)=O)c(Cl)cc2S1 | – | > 10 µM
36 | Cc1ccc(NC(=O)Cn2c(Br)nc3c2c(=O)n(C)c(=O)n3C)cc1 | 3.68 µM | 13 µM
37 | NNc1nncn1N | – | > 100 µM
38 | O=Cc1ccc(-c2cccs2)s1 | – | > 100 µM
39 | C=CC[C@@]1(C(=O)OC)[C@H](Sc2ccccc2)C1(C)C | – | > 100 µM
40 | CC(C)Oc1cc(O)c2c(c1)OCC=C2CCC(=O)O | – | > 100 µM
41 | COc1ccc(/C=C2\C(=O)N(C(=O)Cc3ccccc3)N=C2C)cc1OC | – | > 100 µM
42 | COc1cc(/C=C2\CCC(C)C3=C2NC(=S)NC3c2cc(OC)c(OC)c(OC)c2)cc(OC)c1OC (stereo not drawn) | – | > 100 µM
43 | O=C1c2ccccc2-n2c1nc1ccccc1c2=O | – | 30.4 µM
44 | CCCCOCn1c(=O)[nH]c(=O)c2cc(Br)ccc21 | – | > 100 µM
45 | CCOc1ccccc1NC(=O)CCc1nc(=S)[nH][nH]1 | – | > 100 µM
46 | CC(C)[C@H]1C(=O)N[C@@H](CCCN=C(N)N)C(=O)NCC(=O)N[C@@H](CC(=O)O)C(=O)N[C@H](Cc2ccccc2)C(=O)N1C | > 100 µM | > 100 µM
47 | COc1c2cc(C(C)(C)C)cc1Cc1cccc(c1O)Cc1cc(C(C)(C)C)cc(c1OC)Cc1cccc(c1O)Cc1cc(C(C)(C)C)cc(c1OC)Cc1cccc(c1O)C2 | – | > 100 µM
48 | COc1ccc2c(c1)/c(=C/c1ccc(N(C)C)cc1)c1cc(-c3ccccc3)[n+](C)n12 | 0.353 µM | 4.43 µM and 1.92 µM
49 | CC1(Cl)CC2C(CC1Sc1nnnn1-c1ccccc1)C2(C)C (stereo not drawn) | – | > 100 µM
50 | COc1cc(Br)c(C=Nc2cccc3ccc(OS(=O)(=O)c4cccc([N+](=O)[O-])c4)cc23)cc1OC | – | > 100 µM
51 | C[C@]12CC[C@H](O)CC1=CC[C@@H]1[C@@H]2CC[C@]2(C)/C(=N/OCCN3CCCC3)CC[C@@H]12 | – | 40.7 µM
52 | N#C[C@@H]1C(n2ccc(N)nc2=O)O[C@H](CO)[C@H]1O (stereo partly drawn) | > 100 µM | > 100 µM

Row | Structure (SMILES) | GI50 | TGI
53 | O=C(OC[C@H]1O[C@@H](OC(=O)c2cc(O)c(O)c(O)c2)[C@H](OC(=O)c2cc(O)c(O)c(O)c2)[C@@H](OC(=O)c2cc(O)c(O)c(O)c2)[C@@H]1OC(=O)c1cc(O)c(O)c(O)c1)c1cc(O)c(O)c(O)c1 | – | 54.5 µM
54 | C[C@]12CC[C@@H]3c4ccc(O)cc4C(O)C[C@H]3[C@@H]1CCC2=O (stereo partly drawn) | > 100 µM | > 100 µM
55 | COc1cc(S(C)(=O)=O)ccc1Nc1nc2ccc(-c3ccc(NC(=O)[C@H](C)c4ccc(F)cc4)cc3)cn2n1 | > 100 µM | > 100 µM
56 | CN(C)CCCOCCn1c2c(c3ccccc31)CCCC2 | – | > 100 µM
57 | CN[C@@H]1C[C@H]2O[C@@](C)([C@@H]1OC)n1c3ccccc3c3c4c(c5c6ccccc6n2c5c31)C(=O)N[C@@H]4O | – | 2.31 µM
58 | C=C(C)C1CC=C(C)C2(C1)OCC(C)(C)C(C)O2 (stereo not drawn) | – | 57.9 µM
59 | COc1cc(S(=O)(=O)Nc2ccc(-c3csc(N4C(=O)CSC4c4ccccc4)n3)cc2)ccc1Cl (stereo not drawn) | – | > 100 µM
60 | CC(=O)c1cc2c(s1)C(=O)c1ccccc1C2=O | – | > 100 µM
61 | COC(=O)CCC1=C(C)/C(=C/c2[nH]c(-c3ccc[nH]3)cc2OC)N=C1C | 1.37 µM | 11.6 µM
62 | CN(C)C(=O)O[C@@H]1CN[C@@H](C#Cc2cc3ncnc(Nc4ccc(OCc5cccc(F)c5)c(Cl)c4)c3s2)C1 | 7 µM | > 20.2 µM
63 | CCN(CC)c1ccc2c(c1)Nc1cc(=C(C#N)C#N)c3ccccc3c1=N2 | – | > 100 µM
64 | O=C(NCc1ccc(Cl)cc1)c1cc2sccc2nc1C(F)(F)F | – | > 100 µM
65 | Cc1ccc(SC(=O)N2C(=S)NC(=NC3CCCCC3)C23CCCCC3)cc1 | – | > 100 µM
66 | S=C(S)NCC1CCC(CNC(=S)S)CC1 (stereo not drawn) | – | > 100 µM
67 | CCOC(=O)CC1NC(=O)CS1 (stereo not drawn) | – | > 100 µM
68 | Cc1nn(-c2ccccc2)c(-c2ccccc2[N+](=O)[O-])c1CC#N | – | > 100 µM
69 | O=c1[nH]nc(Cc2ccccc2)n1-n1cnnc1 | – | > 100 µM
70 | CC(C)OP(=O)(OC(C)C)C(C(C)C)N(C)/C(F)=N/C(F)(F)F (stereo not drawn) | – | > 100 µM
71 | Nc1nc(CCC(=O)Nc2cccc(C(F)(F)F)c2)cc(-c2ccc3ccccc3c2)n1 | – | > 100 µM
72 | COc1ccccc1Nc1nc(NNC(=O)Cc2ccccc2)nc(NNC(=O)c2ccncc2)n1 | – | > 10 µM
73 | O=C(CNc1ccc(Cl)cc1Cl)NC1C=Cc2ccc(S(=O)(=O)Nc3ccc(Cl)cc3Cl)cc2C1=O (stereo not drawn) | – | > 100 µM
74 | COc1cccc(-c2cc(=O)c3ccc(C)nc3[nH]2)c1 | – | > 100 µM
75 | COc1cc(Cn2c(-c3nonc3N)nc3ccccc32)ccc1C | 2.45 µM | > 100 µM
76 | CCOC(=O)[C@H]1Nc2ccc(OC)cc2C2c3ccccc3CC21 (stereo partly drawn) | – | > 100 µM
77 | Oc1ccc(CCc2cc(O)cc(O)c2)cc1 | – | > 100 µM
78 | COc1ccc(Cl)cc1Nc1nc(C(F)(F)F)ccc1C(=O)N/N=C/c1cc(OC)c(OC)c(OC)c1 | 0.77 µM | 4.84 µM

Row | Structure (SMILES) | GI50 | TGI
79 | CCOC(=O)C(/C=N\C(=S)Nc1ccc(OCC)cc1)=C(/O)c1ccccc1 | – | > 100 µM
80 | CCCCCCN(CCCCCC)CC(O)c1ccc2c3c(cccc13)CC2 (stereo not drawn) | 7.97 µM | 24.2 µM
81 | CCOC(=O)C(=O)Nc1c(C(C)C)cccc1C(C)C | – | > 100 µM
82 | OC12CC/C(=N/OCc3ccccc3)CC1c1ccccc12 (stereo not drawn) | – | > 100 µM
83 | Cc1c(Cl)cccc1NC(=O)CC1C(=O)Nc2ccccc2S1(=O)=O (stereo not drawn) | – | 46.1 µM
84 | BrC1(Br)C2/C=C\CCCCC21 (stereo not drawn) | – | > 100 µM
85 | C=C(C=O)CCCC(C)[C@@H]1CCC23CC12CCC1[C@@]2(C)CCC(OC(C)=O)C(C)(C)C2CC(OC2OC(COC(C)=O)C(O)C(O)C2O)[C@]13C (stereo partly drawn) | – | 13.8 µM
86 | COc1ccc(Cn2c(Cl)c(/C=C3/C(=O)Nc4ccccc43)c3cc(OC)c(C)cc32)cc1 | 8.74 µM | > 100 µM
87 | Cc1c(-c2ccccc2)c(C#N)c2nnc(C(N)=O)c(N)n12 | – | > 100 µM
88 | Cc1cc(-c2nnc3n2CCCCC3)c(C)n1-c1ccc(Cl)c(Cl)c1 | 18.8 µM | 37.8 µM
89 | COc1cc2c(/C=C3/C(=O)N(c4ccccc4)c4ccccc43)c(Cl)[nH]c2cc1C | – | > 49.1 µM
90 | COC(=O)C1=C(CS(=O)c2ccccc2[N+](=O)[O-])ON(C)C1c1ccccc1 (stereo not drawn) | – | > 100 µM
91 | C=C1C(=O)O[C@H]2C[C@@]3(C)[C@H](O)CCC(=C)[C@@H]3[C@@H](OC(C)=O)[C@H]12 | – | 42.5 µM
92 | COC(=O)CCCCCN=Cc1c(O)c(O)c(C(C)C)c2cc(C)c(-c3c(C)cc4c(C(C)C)c(O)c(O)c(C=NCCCCCC(=O)OC)c4c3O)c(O)c12 | 2.02 µM | > 32.5 µM
93 | CC(=O)OC1[C@H]2c3cc4c(cc3CN3CCC(=C[C@@H]1O)C23)OCO4 (stereo partly drawn) | – | > 100 µM
94 | COc1ccc(C2C(C#N)=C(S)N(C3OC(CO)C(O)C(O)C3O)C(c3ccccc3)=C2C(C)=O)cc1 (stereo not drawn) | – | > 100 µM
95 | CC(C)(C)OC[C@H](O)CC#N | – | > 100 µM
96 | O=C1CC(=O)OC(c2ccc([N+](=O)[O-])cc2)O1 | 3.53 µM | 14.4 µM
97 | C[C-](O)O.O/C(=C\[C-](O)c1ccccc1)c1ccccc1.O/C(=C\[C-](O)c1ccccc1)c1ccccc1.[Nd+3] (stereo not drawn) | 11.3 µM | 54.4 µM
98 | C[N+](C)(C)c1ncnc2c1ncn2C1CCCCO1 (stereo not drawn) | – | > 100 µM
99 | c1cc(CNC2C3CCC(C3)C2c2c[nH]c3ccccc23)cc(CNC2C3CCC(C3)C2c2c[nH]c3ccccc23)c1 (stereo not drawn) | – | 2.73 µM
100 | O=[N+]([O-])c1ccc2c(c1)[O][Sn][O]2 | > 150 µg/mL | > 150 µg/mL
101 | CC1(COS(=O)(=O)OCC2(C)COS(=O)(=O)OC2)COS(=O)(=O)OC1 | – | > 100 µM
